Assay results published in publication PMC4336329 (PLoS ONE, 2015).
Hit rate of the full screen: of about 310,000 compounds, about 14,000 (4.5%) showed an effect of 50% or more. Effects have a minus sign here. The list shows a part of the results.

target: human ether-à-go-go-related gene (hERG) potassium channel (human, UniProt Q12809); test: primary screen, population patch clamp on CHO cells stably expressing hERG
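Further: peak tail current of the secondary pulse compared with the same well before compound.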

Chain of human ether-à-go-go-related gene (hERG) potassium channel (Q12809 whole entry, looked up): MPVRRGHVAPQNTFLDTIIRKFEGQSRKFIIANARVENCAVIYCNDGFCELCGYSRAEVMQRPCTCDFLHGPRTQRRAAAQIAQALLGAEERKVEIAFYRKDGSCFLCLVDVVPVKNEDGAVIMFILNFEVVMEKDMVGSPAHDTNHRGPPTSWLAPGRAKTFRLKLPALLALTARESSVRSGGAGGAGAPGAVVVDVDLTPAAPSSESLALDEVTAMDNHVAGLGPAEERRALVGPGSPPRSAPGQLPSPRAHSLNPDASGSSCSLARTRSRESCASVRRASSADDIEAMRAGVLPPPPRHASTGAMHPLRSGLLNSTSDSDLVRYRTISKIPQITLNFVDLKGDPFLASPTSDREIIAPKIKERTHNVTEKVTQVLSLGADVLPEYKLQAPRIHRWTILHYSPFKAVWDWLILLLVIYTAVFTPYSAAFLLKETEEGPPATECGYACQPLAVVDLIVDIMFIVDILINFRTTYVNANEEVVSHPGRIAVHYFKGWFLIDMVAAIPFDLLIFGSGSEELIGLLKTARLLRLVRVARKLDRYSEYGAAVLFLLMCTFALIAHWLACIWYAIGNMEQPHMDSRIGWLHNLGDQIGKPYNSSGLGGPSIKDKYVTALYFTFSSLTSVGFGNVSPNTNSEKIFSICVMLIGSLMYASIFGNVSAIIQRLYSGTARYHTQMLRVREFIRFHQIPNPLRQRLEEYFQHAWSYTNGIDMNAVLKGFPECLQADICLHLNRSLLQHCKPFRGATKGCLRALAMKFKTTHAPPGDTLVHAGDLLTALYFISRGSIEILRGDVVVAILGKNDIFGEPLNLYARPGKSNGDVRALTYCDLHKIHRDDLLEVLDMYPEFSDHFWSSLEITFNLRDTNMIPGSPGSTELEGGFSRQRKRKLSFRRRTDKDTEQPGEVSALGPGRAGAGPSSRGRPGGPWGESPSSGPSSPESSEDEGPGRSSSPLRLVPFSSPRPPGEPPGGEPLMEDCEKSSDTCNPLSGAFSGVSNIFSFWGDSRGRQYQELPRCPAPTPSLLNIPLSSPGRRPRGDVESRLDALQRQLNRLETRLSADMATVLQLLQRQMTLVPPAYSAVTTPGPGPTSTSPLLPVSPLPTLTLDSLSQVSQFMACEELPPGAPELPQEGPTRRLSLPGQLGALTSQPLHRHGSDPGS

| Structure (SMILES) | hERG current change (%, negative = inhibition) at 10uM |
| --- | --- |
| CCS(=O)(=O)N1CCCC(C(=O)NCCc2ccccc2)C1 (stereo not drawn) | -28.3% |
| O=C(Nc1ccccc1N1CCN(C(=O)c2ccccc2)CC1)c1ccc(Cl)cc1 | -73.2% |
| Cc1nnc(N/N=C/c2cccc(OCc3ccc(Cl)c(Cl)c3)c2)n1N.Cl | 8.08% |
| Cc1ccc(C=C2C(=O)c3ccccc3C2=O)s1 | -0.492% |
| CN1CCN(CCCNC(=O)C2CCN(c3nnc(-n4cccc4)s3)CC2)CC1 | 20.2% |
| COc1ccc(C(=O)OCC(=O)Nc2cccc(C(C)=O)c2)c(OC)c1OC | -33% |
| COC(=O)c1ccc(CSc2nc3c(cnn3-c3ccc(C)c(C)c3)c(=O)[nH]2)o1 | 8.51% |
| Cc1cc(SCc2ccc(F)cc2)nc(=O)[nH]1 | 8.12% |
| COc1ccc(S(=O)(=O)Nc2cc3c4c(c2)CCN4C(=O)CC3)cc1OC | -7.56% |
| COc1ccc(NS(=O)(=O)c2cccc(C(=O)NC3CCN(Cc4ccccc4)CC3)c2)cc1 | -46.7% |
| Nc1[nH]n(-c2ccccc2)c(=O)c1N=Nc1ccc2c(c1)OCCO2 | 6.01% |
| CC(=O)OC(C(=O)NCc1ccc2c(c1)OCO2)c1ccccc1Cl (stereo not drawn) | 14% |
| Cc1ccc(S(=O)(=O)NCC(=O)OCC(=O)c2cc(C)n(-c3ccccc3)c2C)cc1 | -12.5% |
| O=S(=O)(NCCc1ccncc1)c1cc(Br)ccc1F | -10.3% |
| O=C(COc1ccccc1)n1nc(-c2ccc(Cl)cc2)nc1NCc1ccco1 | -12.5% |
| COc1ccc(S(=O)(=O)Nc2ccc3c(c2)n(C)c(=O)n3C)cc1F | 16.3% |
| COc1cccc(NC(=O)CSc2ccc3nnc(-c4ccncc4)n3n2)c1 | -22.7% |
| Cc1ccc(S(=O)(=O)NCCCCCC(=O)N(C)C)cc1 | 6.32% |
| CCC(Sc1nc(C)cc(C)n1)C(=O)NC1=NN=C(c2ccc(C)cc2)CS1 (stereo not drawn) | -3.24% |
| Cc1ccc(-c2nnc(SCC(=O)Nc3ccccc3F)o2)cc1 | 6.53% |
| O=C(O)CCn1c2ccccc2c2nc3ccccc3nc21 | 11.6% |
| O=C(CC(NC(=O)c1ccccc1Cl)c1ccccc1)Nc1ccc2c(c1)OCO2 (stereo not drawn) | 11.4% |

| Structure (SMILES) | hERG current change (%, negative = inhibition) at 10uM |
| --- | --- |
| Cc1nc(NCc2ccco2)c2c3c(sc2n1)CCC3 | -24.3% |
| CCOC(=O)C1=C(COC(=O)COc2ccccc2C#N)NC(=O)NC1C (stereo not drawn) | 11.1% |
| COc1cc(NC(=O)CSC(=S)N2CCCC2)c(OC)cc1Cl | 25.5% |
| CCOC(=O)c1ccc(NC(=O)CCc2nc(-c3ccc(C)cc3)no2)cc1 | 5.14% |
| O=C(O)c1cc(N2C(=O)C3C4C=CC(C4)C3C2=O)ccc1N1CCOCC1 (stereo not drawn) | 6.73% |
| CC1CCc2nn(CC(=O)NCc3ccc4c(c3)OCO4)cc2C1 (stereo not drawn) | -10.5% |
| Cc1ccc(C)c(CN2CCN(c3ncccn3)CC2)c1 | 0.844% |
| O=S(=O)(NC1CCN(S(=O)(=O)c2ccc3c(c2)OCCO3)C1)c1c(F)cccc1F (stereo not drawn) | -5.22% |
| O=C(NCCCn1ccnc1)/C(=C\c1ccco1)NC(=O)c1ccco1 | -35.3% |
| COc1ccc2nc(CCN(C)C(=O)C3CCC(=O)N(Cc4cccc(F)c4)C3)[nH]c2c1 (stereo not drawn) | 8.91% |
| Cc1cc(C)cc(OCC(=O)N2Cc3ccccc3CC2C(=O)O)c1 (stereo not drawn) | 0.818% |
| COc1ccc(C(c2c(NC(=O)c3ccco3)sc(C)c2C)N2CCOCC2)cc1OC (stereo not drawn) | -15% |
| COc1ccccc1N1CCN(CC(=O)Nc2ccnn2C2CCCC2)CC1 | 3.01% |
| CCN(CC)C(=O)c1nc[nH]c1C(=O)N1CCN(c2ccccc2)CC1 | 17.5% |
| CN1C2CCC1CC(NC(=O)CSCc1ccc(Cl)cc1Cl)C2 (stereo not drawn) | -57.4% |
| CCOc1cc(/C=N/n2cnnc2)ccc1OS(=O)(=O)c1ccccc1 | -57.7% |
| CC(=O)Nc1ccc(NC(=O)c2ccc(COc3ccccc3Br)o2)cc1 | 17.1% |
| COc1ccc(NC(=O)CN2C(=O)CC(C)(C)S(=O)(=O)c3ccccc32)cc1 | -5.29% |
| CNCCCC1Sc2ccccc2Oc2ccccc21.O=C(O)C(=O)O (stereo not drawn) | -16.1% |
| COc1cc(C2NC(=O)c3ccccc3O2)cc(OC)c1OC (stereo not drawn) | -9.55% |
| COC(=O)C1C(=O)c2c([nH]c(C(=O)OC3CCCC3C)c2C)CC1C (stereo not drawn) | 6.17% |
| O=C(Nc1ccc(Oc2cccnc2)nc1)c1ccc(C(F)(F)F)cc1 | -30% |

| Structure (SMILES) | hERG current change (%, negative = inhibition) at 10uM |
| --- | --- |
| O=C(CC1CCCCC1)Nc1ccccc1-c1ccccc1 | 6.47% |
| N=C1c2ccccc2CN1NC(=O)CC12CC3CC(CC(C3)C1)C2 | -5.03% |
| CCCc1nnc(SCC(=O)N2CCCCC2)n1CCCOC | 12% |
| CCOC(=O)C(=CNc1ccc(Oc2cncc(Cl)c2)nc1)C(=O)OCC | -27.9% |
| Cc1cccc(C(C(N)=O)c2ncc(C(F)(F)F)cc2Cl)c1 (stereo not drawn) | -0.224% |
| NC(=O)C1(N2CCCCC2)CCN(C(=O)c2ccc(-n3cnnn3)cc2)CC1 | -30.6% |
| CCCCOc1ccc(C(C)NC(=O)C2CCCN(S(=O)(=O)CC)C2)cc1 (stereo not drawn) | 9.13% |
| COC(=O)c1ccc(Oc2ccc(C(C)(C)C)cc2)c([N+](=O)[O-])c1 | 11.7% |
| Cc1ccc(S(=O)(=O)N(Cc2ccccc2)c2ccccc2C(=O)NCc2ccco2)cc1 | 1.72% |
| Cc1ccc(C(=O)N2CCN(c3ccc(NC(=O)COc4ccccc4C)cc3)CC2)cc1 | -73.6% |
| CC1(C(=O)OCC(=O)Nc2ccccc2)CC1(Cl)Cl (stereo not drawn) | 7.96% |
| O=C(c1cc(-c2ccc(Cl)cc2)on1)N1CCc2ccccc2C1 | 9.65% |
| O=C(CCCOc1ccccc1)Nc1ccc(S(=O)(=O)N2CCOCC2)cc1 | -13.9% |
| CC(=O)Nc1ccc(-c2cn3cccnc3n2)cc1 | 2.7% |
| CCN(CC)CCN1C(=O)/C(=C\c2ccc(Cl)c([N+](=O)[O-])c2)SC1=Nc1ccc(OC)cc1 | 5.33% |
| COc1cccc(-c2sc3ccc(OC)cc3c2-c2ccc(OC)cc2F)c1 | 7.17% |
| CC(Cc1ccccc1)NC(=O)c1ccc(N)cc1 (stereo not drawn) | 0.557% |
| COc1ccc2c(c1)[nH]c1c(=O)n(CCC3=CCCCC3)cnc12 | 5.06% |
| Cc1c(OCC(=O)NCc2ccccn2)ccc2c3c(c(=O)oc12)CCCC3 | 12.1% |
| O=C(O)CCC(=O)N1CCN(c2nc3ccccc3s2)CC1 | -4.33% |
| CC(=O)c1c(C)[nH]c(C(=O)CSc2nnc(-c3ccccc3)n2Cc2ccc3c(c2)OCO3)c1C | -1.37% |
| COc1ccc(Cn2c(=S)[nH]c3ccccc32)cc1 | 32.9% |

| Structure (SMILES) | hERG current change (%, negative = inhibition) at 10uM |
| --- | --- |
| CCOC(=O)CNC(=O)c1sc(NC(=O)c2ccccc2)nc1C | 1.47% |
| CCC(CC)C(=O)Nc1ccc(Nc2ccccc2)cc1 | 8.32% |
| CC1CN(C(=O)c2ccc(-c3ccccc3Cl)o2)CC(C)O1 (stereo not drawn) | -14.2% |
| Cc1ccc([N+](=O)[O-])cc1S(=O)(=O)Nc1ccc(C(=O)N(C)C)cc1 | 10.3% |
| O=C(CSc1nnc(CNC(=O)c2ccccc2F)o1)c1ccc(Cl)cc1 | -9.97% |
| COC(=O)c1cccc(NC(=S)NCc2ccc(Cl)cc2)c1 | 4.04% |
| COC(=O)c1ccc(NC(=S)NC2CC3CCC2C3)cc1 (stereo not drawn) | 9% |
| CSc1ccccc1NS(=O)(=O)c1ccc2c(c1)OCCO2 | -4.66% |
| COc1ccc(OC)c2[nH]c(=O)c(CCNC(=O)c3cc4ccccc4o3)cc12 | -49.9% |
| CCCNc1nc(C)cc(-c2cc(C(=O)Nc3ccccc3)on2)n1 | 8.74% |
| CCc1cc(C(=O)N(C)CC(=O)N(CC(C)C)c2c(N)n(CC(C)C)c(=O)[nH]c2=O)sc1C | 0.234% |
| Cc1ccc(OCCN(C)C(=O)c2cc(COc3ccc(F)cc3F)on2)cc1 | 7.33% |
| Cc1ccc(-c2nnc(SCC(=O)N(C)C)nc2-c2ccc(C)cc2)cc1 | -67.9% |
| N#Cc1ccccc1S(=O)(=O)N1CCN(C(=O)c2ccc(-n3cncn3)c([N+](=O)[O-])c2)CC1 | -23.3% |
| COc1ccc(CCNC(=O)CSc2nn(-c3ccccc3)c(=S)s2)cc1 | 16.4% |
| COc1cc(O)c(C(=O)/C=C/c2ccccc2)c(OC)c1 | 14.8% |
| NS(=O)(=O)c1ccc(N=NN2CCCCC2)cc1 | 3.11% |
| Cc1ccc(N(CC(=O)NCc2ccc(F)cc2)C(=O)c2snc(C(N)=O)c2N)cc1C | -1.8% |
| Cc1cc(=O)oc2cc(OCC3CC(c4ccc(Br)cc4)=NO3)ccc12 (stereo not drawn) | 11.5% |
| Cc1ccc2c(Cl)c(C(=O)NCCc3ccccc3)sc2c1 | 3.66% |
| CC(C)C(NS(=O)(=O)c1cccc(C(F)(F)F)c1)C(=O)N1CCc2ccccc2C1 (stereo not drawn) | 2.81% |
